Results: paper PMC9899276
Results are given in words; binding and its absence hold for the method and conditions named. Binding seen in cells or lysates may run through a third protein. Some results given as binding are weak or reduced against the parent protein; the word gives no strength.

By UniProt entry, the sequences of proteins in these tests, tags left out. Where a name states a change or a piece, a line headed by the entry shows the natural chain unless it says otherwise.
UniProt Q86WV6: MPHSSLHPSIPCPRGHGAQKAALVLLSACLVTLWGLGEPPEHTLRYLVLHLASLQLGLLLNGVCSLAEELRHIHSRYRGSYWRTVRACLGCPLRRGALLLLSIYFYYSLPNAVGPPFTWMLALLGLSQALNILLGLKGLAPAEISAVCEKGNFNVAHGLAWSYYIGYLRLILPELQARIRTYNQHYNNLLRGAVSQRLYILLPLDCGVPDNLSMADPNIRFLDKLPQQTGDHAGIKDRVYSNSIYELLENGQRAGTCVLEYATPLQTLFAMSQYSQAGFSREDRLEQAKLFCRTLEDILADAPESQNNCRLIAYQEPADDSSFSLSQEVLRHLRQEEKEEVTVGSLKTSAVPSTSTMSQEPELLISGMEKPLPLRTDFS
UniProt O14964: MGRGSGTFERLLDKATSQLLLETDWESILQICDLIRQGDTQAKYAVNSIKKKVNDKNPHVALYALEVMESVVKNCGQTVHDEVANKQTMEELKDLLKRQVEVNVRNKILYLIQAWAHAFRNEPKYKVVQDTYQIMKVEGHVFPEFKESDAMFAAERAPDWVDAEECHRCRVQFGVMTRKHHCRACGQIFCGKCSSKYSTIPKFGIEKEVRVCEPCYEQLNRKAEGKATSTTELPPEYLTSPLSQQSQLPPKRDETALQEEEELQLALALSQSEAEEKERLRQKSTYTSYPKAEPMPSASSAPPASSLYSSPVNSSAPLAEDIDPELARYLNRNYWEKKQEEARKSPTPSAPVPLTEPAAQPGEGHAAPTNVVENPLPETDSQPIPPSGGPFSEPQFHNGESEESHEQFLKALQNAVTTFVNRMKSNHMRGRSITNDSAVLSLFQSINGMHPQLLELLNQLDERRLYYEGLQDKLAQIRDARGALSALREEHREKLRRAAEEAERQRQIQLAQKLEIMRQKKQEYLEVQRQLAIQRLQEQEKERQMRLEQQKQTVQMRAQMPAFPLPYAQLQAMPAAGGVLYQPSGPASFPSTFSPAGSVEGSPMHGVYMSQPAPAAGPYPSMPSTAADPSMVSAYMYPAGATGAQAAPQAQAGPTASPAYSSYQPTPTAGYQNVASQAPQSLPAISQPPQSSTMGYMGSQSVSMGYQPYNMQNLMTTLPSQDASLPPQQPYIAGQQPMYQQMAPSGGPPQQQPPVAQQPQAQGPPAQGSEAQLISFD
UniProt Q8NEZ2: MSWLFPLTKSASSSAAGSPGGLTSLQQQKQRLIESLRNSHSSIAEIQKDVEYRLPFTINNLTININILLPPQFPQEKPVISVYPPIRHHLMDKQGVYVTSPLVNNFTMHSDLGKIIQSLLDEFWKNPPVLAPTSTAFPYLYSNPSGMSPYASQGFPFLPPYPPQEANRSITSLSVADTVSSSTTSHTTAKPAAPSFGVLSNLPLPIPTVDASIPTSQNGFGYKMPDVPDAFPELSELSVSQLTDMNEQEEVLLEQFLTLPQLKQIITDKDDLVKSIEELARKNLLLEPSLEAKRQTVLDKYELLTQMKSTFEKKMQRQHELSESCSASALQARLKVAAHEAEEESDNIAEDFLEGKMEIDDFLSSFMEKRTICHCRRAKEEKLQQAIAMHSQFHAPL

Assays:
Assay in all cases: co-IP; 293T stably expressing STING-HA (WT, V155M or R284S), transfected with mScarlet-HGS or mScarlet-VPS37A, not stimulated; lysis in 20 mM Tris-HCl pH 7.5, 150 mM NaCl, 0.5% NP-40; anti-HA magnetic beads O/N at 4 °C; immunoblot
[1] = target: STING V155M-HA (human) (UniProt Q86WV6)
[2] = target: STING R284S-HA (human) (UniProt Q86WV6)
[3] = target: HA-tagged wild-type (WT) STING (human) (UniProt Q86WV6)

Substance | binding [1] | binding [2] | binding [3]
mScarlet-HGS (from UniProt O14964 1-777) | binds | binds | no binding (condition: cells not stimulated with cGAMP)
mScarlet-VPS37A (from UniProt Q8NEZ2 1-397) | binds | binds | –
